Assay results: paper PMC6451091
The other results are listed elsewhere or left out. For part of these data: At the low end of the ranking, values are background and their order means little. For part of these data: The protein was read in a cell extract, so binding may be indirect.

Target: PU.1 (IVT) (UniProt P17947)
Experiment: protein-binding microarray (PBM)
Conditions: 20 mM HEPES pH 7.9, 100 mM NaCl, 1 mM DTT, 0.2 mg/mL BSA, 0.02% Triton X-100, 2% milk, 0.4 mg/mL salmon testes DNA; 1 h; temperature not stated; high values mean tight binding; double strand, one strand shown; sequences stand for … in GCCTAGCAC…GTGCTAGGTCTTGATTCGCTTGACGCTGCTG

Sequence	binding signal
CATTTGGGGAAGTGAAAAGA	5.54 z-score
GAGAAGAGGAAATGGTGAGA	2.65 z-score
ACAATAAGGAACTGTGCCCC	2.81 z-score
TAGGAGAGGAAGTGAGAGAA	4.16 z-score
GAAAAGAGGAAGTGAGAAAC	8.29 z-score
ACATAGGGGAAGTGCCATCT	4.28 z-score
AGAAGCAGGAAGTGGTAAGT	4.6 z-score
GCAAAAAGGAACTGTGCCCC	1.53 z-score
GGGGTGAGGAAGTGAAATGA	3.82 z-score
AGAAGAAGGAAGTACTGTGG	4.76 z-score
GAAAAAAGGAAGTGTGTTGT	6.01 z-score
CTGAAGAGGAACTCCAGAGA	2.67 z-score
CTGCTGAGGAAGTGAGAGAC	2.48 z-score
TGAGGAAGGAAGTGGCTGTT	2.51 z-score
TCAACATGGAAGTACTGTGC	1.95 z-score
ACAATAAGGAAGTGATACTA	4.77 z-score
TGAAACGGGAAGTGTCAGCA	5.45 z-score
AGAAAGAGGAAGAGGAGGGG	4.14 z-score
CGAAAGGGGAATTGCTAAAC	1.84 z-score
TTTTTGAGGAAGTGAATTAT	7.02 z-score

Sequence	binding signal
AAACTGAGGAAGTGATGACT	3.4 z-score
GAAAAGAGGAAGTCAAACCC	8.14 z-score
GAAAACAGGGAGTCCCATAG	-0.561 z-score
GGAAACAGGAAGTGAGATAA	6.91 z-score
GAAATGAGGAAGTGATTAGG	8.13 z-score
CAAATGGGGAAATGAGCCAC	3.47 z-score
AAAAAGAGGAAGTGCTTTTC	8.49 z-score
CCAGAGAGGAAGTATGCAAG	4.11 z-score
GCAATGGGGAAGTGGCCATT	5.45 z-score
GGCAAGAGGAAGTGTTGCTG	4.82 z-score
AGATTGAGGAAGTGAAGTGA	6.27 z-score
AGAAAAAGGAAGTGACACAG	6.18 z-score
AATAAGAGGAAGTGAAATAA	7.03 z-score
TAAATGGGGAAGTGTAGACT	6.34 z-score
AATAAGAGGAAGTCCTCTGT	6.25 z-score
CATATGAGGAACTGATGCGG	3.75 z-score
TGAGAGGGGAAGTGGCAGCT	4.01 z-score
TAAAAGAGGAACTCACAGTG	6 z-score
AAGGTGGGGAAGTGAAGAAA	2.62 z-score
AGTTTAAGGAAGTGATTCTA	6.01 z-score

Target: PU.1 (endogenous, THP-1 nuclear extract) (UniProt P17947)
Experiment: nuclear extract protein-binding microarray (nextPBM)
Conditions: 20 mM HEPES pH 7.9, 100 mM NaCl, 1 mM DTT, 0.2 mg/mL BSA, 0.02% Triton X-100, 2% milk, 0.4 mg/mL salmon testes DNA; 1 h; temperature not stated; high values mean tight binding; double strand, one strand shown; sequences stand for … in GCCTAGCAC…GTGCTAGGTCTTGATTCGCTTGACGCTGCTG

Sequence	binding signal
CATTTGGGGAAGTGAAAAGA	5.89 z-score
GAGAAGAGGAAATGGTGAGA	2.62 z-score
ACAATAAGGAACTGTGCCCC	2.43 z-score
TAGGAGAGGAAGTGAGAGAA	4.16 z-score
GAAAAGAGGAAGTGAGAAAC	7.38 z-score
ACATAGGGGAAGTGCCATCT	4.66 z-score
AGAAGCAGGAAGTGGTAAGT	4.22 z-score
GCAAAAAGGAACTGTGCCCC	1.38 z-score
GGGGTGAGGAAGTGAAATGA	3.43 z-score
AGAAGAAGGAAGTACTGTGG	4.85 z-score
GAAAAAAGGAAGTGTGTTGT	5.97 z-score
CTGAAGAGGAACTCCAGAGA	2.82 z-score
CTGCTGAGGAAGTGAGAGAC	2.83 z-score
TGAGGAAGGAAGTGGCTGTT	2.57 z-score
TCAACATGGAAGTACTGTGC	1.56 z-score
ACAATAAGGAAGTGATACTA	5.7 z-score
TGAAACGGGAAGTGTCAGCA	6.28 z-score
AGAAAGAGGAAGAGGAGGGG	5.02 z-score
CGAAAGGGGAATTGCTAAAC	1.54 z-score
TTTTTGAGGAAGTGAATTAT	6.78 z-score

Sequence	binding signal
AAACTGAGGAAGTGATGACT	3.34 z-score
GAAAAGAGGAAGTCAAACCC	7.4 z-score
GAAAACAGGGAGTCCCATAG	-0.45 z-score
GGAAACAGGAAGTGAGATAA	7.04 z-score
GAAATGAGGAAGTGATTAGG	7.4 z-score
CAAATGGGGAAATGAGCCAC	3.45 z-score
AAAAAGAGGAAGTGCTTTTC	7.47 z-score
CCAGAGAGGAAGTATGCAAG	4.37 z-score
GCAATGGGGAAGTGGCCATT	5.73 z-score
GGCAAGAGGAAGTGTTGCTG	5.08 z-score
AGATTGAGGAAGTGAAGTGA	6.54 z-score
AGAAAAAGGAAGTGACACAG	6.14 z-score
AATAAGAGGAAGTGAAATAA	7.12 z-score
TAAATGGGGAAGTGTAGACT	6.69 z-score
AATAAGAGGAAGTCCTCTGT	6.68 z-score
CATATGAGGAACTGATGCGG	4.03 z-score
TGAGAGGGGAAGTGGCAGCT	3.62 z-score
TAAAAGAGGAACTCACAGTG	6.33 z-score
AAGGTGGGGAAGTGAAGAAA	2.52 z-score
AGTTTAAGGAAGTGATTCTA	5.89 z-score

Target: T1, FLI1 (endogenous, THP-1 nuclear extract) (UniProt Q01543)
T1 sequence: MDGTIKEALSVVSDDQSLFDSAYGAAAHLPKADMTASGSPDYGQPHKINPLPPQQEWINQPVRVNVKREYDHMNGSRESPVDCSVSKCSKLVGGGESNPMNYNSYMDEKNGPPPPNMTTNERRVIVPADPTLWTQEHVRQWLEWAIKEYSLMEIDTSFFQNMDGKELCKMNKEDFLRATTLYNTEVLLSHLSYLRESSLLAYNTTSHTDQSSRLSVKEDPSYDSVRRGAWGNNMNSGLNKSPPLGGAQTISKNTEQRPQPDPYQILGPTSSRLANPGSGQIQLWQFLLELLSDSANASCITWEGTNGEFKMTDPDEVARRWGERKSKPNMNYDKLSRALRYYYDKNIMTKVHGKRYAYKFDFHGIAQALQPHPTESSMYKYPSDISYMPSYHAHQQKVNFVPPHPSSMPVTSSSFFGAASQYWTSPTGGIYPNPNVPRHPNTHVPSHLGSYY
Experiment: as above
Conditions: 20 mM HEPES pH 7.9, 100 mM NaCl, 1 mM DTT, 0.2 mg/mL BSA, 0.02% Triton X-100, 2% milk, 0.4 mg/mL salmon testes DNA; 1 h; temperature not stated; high values mean tight binding; double strand, one strand shown; sequences stand for … in GCCTAGCAC…GTGCTAGGTCTTGATTCGCTTGACGCTGCTG

Sequence	binding signal
CATTTGGGGAAGTGAAAAGA	2.13 z-score
GAGAAGAGGAAATGGTGAGA	2.42 z-score
ACAATAAGGAACTGTGCCCC	0.837 z-score
TAGGAGAGGAAGTGAGAGAA	2.77 z-score
GAAAAGAGGAAGTGAGAAAC	4.18 z-score
ACATAGGGGAAGTGCCATCT	2.04 z-score
AGAAGCAGGAAGTGGTAAGT	4.42 z-score
GCAAAAAGGAACTGTGCCCC	0.733 z-score
GGGGTGAGGAAGTGAAATGA	2.22 z-score
AGAAGAAGGAAGTACTGTGG	2.42 z-score
GAAAAAAGGAAGTGTGTTGT	2.78 z-score
CTGAAGAGGAACTCCAGAGA	1.01 z-score
CTGCTGAGGAAGTGAGAGAC	1.61 z-score
TGAGGAAGGAAGTGGCTGTT	2.39 z-score
TCAACATGGAAGTACTGTGC	0.651 z-score
ACAATAAGGAAGTGATACTA	2.65 z-score
TGAAACGGGAAGTGTCAGCA	2.72 z-score
AGAAAGAGGAAGAGGAGGGG	1.91 z-score
CGAAAGGGGAATTGCTAAAC	0.073 z-score
TTTTTGAGGAAGTGAATTAT	3.19 z-score

Sequence	binding signal
AAACTGAGGAAGTGATGACT	1.8 z-score
GAAAAGAGGAAGTCAAACCC	3.87 z-score
GAAAACAGGGAGTCCCATAG	0.127 z-score
GGAAACAGGAAGTGAGATAA	5.44 z-score
GAAATGAGGAAGTGATTAGG	3.48 z-score
CAAATGGGGAAATGAGCCAC	1.34 z-score
AAAAAGAGGAAGTGCTTTTC	4.56 z-score
CCAGAGAGGAAGTATGCAAG	2.48 z-score
GCAATGGGGAAGTGGCCATT	2.33 z-score
GGCAAGAGGAAGTGTTGCTG	2.81 z-score
AGATTGAGGAAGTGAAGTGA	2.81 z-score
AGAAAAAGGAAGTGACACAG	2.92 z-score
AATAAGAGGAAGTGAAATAA	3.65 z-score
TAAATGGGGAAGTGTAGACT	2.51 z-score
AATAAGAGGAAGTCCTCTGT	3.13 z-score
CATATGAGGAACTGATGCGG	0.547 z-score
TGAGAGGGGAAGTGGCAGCT	2.19 z-score
TAAAAGAGGAACTCACAGTG	1.57 z-score
AAGGTGGGGAAGTGAAGAAA	1.44 z-score
AGTTTAAGGAAGTGATTCTA	2.83 z-score
